In paper PMC2685382:
These are yes or no findings as the source states them, for the method shown. In cells and extracts the contact can be indirect. Some results given as binding are weak or reduced against the parent protein; the word gives no strength. Tags and fused reporters may be left off the sequences shown. One block for each molecule: values may come before it.

Amino acid sequences for entries named in this document (tags omitted).
UniProt Q8R418: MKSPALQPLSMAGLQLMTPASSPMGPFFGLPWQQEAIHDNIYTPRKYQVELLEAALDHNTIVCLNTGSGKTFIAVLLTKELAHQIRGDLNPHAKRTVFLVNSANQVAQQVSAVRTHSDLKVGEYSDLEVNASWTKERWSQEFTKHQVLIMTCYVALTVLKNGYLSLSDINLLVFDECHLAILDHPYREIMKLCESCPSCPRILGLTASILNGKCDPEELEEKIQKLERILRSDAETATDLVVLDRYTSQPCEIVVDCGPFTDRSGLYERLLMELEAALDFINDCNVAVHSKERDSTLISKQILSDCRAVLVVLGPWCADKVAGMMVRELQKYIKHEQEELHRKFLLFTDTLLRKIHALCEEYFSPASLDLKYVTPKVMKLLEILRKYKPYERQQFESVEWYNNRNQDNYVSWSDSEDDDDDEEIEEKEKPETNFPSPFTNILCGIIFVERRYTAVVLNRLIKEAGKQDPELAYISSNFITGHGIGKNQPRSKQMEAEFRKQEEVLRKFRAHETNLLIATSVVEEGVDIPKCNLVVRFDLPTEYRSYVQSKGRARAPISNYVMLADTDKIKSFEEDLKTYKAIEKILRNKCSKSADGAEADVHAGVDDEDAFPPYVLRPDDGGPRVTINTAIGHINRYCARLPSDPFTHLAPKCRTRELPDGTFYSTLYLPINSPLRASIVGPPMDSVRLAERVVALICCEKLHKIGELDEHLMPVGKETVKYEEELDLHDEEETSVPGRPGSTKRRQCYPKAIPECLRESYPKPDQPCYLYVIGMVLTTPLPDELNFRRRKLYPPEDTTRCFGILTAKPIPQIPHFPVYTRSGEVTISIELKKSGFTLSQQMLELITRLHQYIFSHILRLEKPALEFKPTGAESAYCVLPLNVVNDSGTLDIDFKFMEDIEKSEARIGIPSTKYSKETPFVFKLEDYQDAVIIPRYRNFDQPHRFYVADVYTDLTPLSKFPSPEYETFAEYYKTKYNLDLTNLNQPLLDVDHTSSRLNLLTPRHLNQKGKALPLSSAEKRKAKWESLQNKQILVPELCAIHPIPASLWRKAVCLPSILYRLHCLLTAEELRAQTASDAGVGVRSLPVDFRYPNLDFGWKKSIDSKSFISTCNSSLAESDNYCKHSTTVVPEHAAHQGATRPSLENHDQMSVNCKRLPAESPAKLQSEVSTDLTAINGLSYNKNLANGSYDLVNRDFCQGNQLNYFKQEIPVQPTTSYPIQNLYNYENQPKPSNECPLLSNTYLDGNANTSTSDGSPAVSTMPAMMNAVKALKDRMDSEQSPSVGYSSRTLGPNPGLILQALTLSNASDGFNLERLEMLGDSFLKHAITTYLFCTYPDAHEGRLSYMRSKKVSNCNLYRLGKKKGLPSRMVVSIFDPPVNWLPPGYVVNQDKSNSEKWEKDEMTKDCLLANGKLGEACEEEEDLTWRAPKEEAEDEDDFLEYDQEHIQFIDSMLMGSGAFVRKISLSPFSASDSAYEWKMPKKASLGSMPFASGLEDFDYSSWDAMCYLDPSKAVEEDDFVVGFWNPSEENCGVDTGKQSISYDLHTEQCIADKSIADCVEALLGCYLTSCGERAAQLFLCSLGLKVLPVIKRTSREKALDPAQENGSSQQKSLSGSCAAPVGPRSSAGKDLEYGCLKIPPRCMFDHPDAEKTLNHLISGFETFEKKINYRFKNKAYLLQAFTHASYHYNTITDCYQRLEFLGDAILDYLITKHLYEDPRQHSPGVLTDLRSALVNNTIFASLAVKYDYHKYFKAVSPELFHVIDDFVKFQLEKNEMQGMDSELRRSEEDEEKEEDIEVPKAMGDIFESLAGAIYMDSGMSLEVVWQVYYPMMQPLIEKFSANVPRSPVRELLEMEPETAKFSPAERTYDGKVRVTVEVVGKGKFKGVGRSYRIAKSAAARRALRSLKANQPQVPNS

Experiments:
Myc-TRBP2ΔC4 (human) = target: T1, Myc-TRBP2ΔC4 (human) (UniProt Q15633); assay: co-IP; 1 mg extract of transfected tarbp2-/- cells; IP with anti-Myc on protein G sepharose, overnight at 4°C; blot with anti-Dicer
T1 sequence: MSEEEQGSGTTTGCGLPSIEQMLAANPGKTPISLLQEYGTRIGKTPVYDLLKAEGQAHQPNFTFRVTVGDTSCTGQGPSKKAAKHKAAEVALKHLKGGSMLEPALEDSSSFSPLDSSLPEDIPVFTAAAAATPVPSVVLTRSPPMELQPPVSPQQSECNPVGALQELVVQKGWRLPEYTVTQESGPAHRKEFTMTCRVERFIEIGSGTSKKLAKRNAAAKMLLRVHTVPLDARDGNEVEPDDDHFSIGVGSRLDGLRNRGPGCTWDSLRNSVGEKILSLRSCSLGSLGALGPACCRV

Myc-TRBP2 (human) = target: T2, Myc-TRBP2 (human) (UniProt Q15633); assay: as above
T2 sequence: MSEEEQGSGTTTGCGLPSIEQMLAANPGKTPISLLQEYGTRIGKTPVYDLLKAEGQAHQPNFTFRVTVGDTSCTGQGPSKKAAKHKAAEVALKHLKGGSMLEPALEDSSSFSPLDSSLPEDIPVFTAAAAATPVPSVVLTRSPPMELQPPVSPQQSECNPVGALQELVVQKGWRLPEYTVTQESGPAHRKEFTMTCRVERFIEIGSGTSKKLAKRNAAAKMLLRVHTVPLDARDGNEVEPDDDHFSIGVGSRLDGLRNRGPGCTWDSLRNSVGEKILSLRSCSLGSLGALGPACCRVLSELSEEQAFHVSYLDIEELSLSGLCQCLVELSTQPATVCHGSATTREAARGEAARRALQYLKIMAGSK

Myc-TRBP1ΔC4 (human) = target: T3, Myc-TRBP1ΔC4 (human) (UniProt Q15633); assay: as above
T3 sequence: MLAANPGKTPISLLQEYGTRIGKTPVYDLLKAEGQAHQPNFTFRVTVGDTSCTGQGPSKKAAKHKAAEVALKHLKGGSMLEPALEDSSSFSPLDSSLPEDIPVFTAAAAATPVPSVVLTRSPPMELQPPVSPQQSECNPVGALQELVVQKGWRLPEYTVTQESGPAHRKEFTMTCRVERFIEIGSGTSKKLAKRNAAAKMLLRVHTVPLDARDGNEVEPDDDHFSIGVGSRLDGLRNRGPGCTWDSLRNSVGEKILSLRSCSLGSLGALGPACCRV

Myc-TRBP1 (human) = target: T4, Myc-TRBP1 (human) (UniProt Q15633); assay: as above
T4 sequence: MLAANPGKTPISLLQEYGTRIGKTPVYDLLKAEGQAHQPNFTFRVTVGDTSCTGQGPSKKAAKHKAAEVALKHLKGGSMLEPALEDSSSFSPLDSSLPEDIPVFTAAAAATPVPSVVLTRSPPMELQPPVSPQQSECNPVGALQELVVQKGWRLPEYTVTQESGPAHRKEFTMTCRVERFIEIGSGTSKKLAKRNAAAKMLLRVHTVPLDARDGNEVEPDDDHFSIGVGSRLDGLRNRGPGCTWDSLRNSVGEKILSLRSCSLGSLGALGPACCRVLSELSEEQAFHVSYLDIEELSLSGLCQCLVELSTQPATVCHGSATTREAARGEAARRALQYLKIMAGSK

[1] = target: endogenous Dicer of murine tarbp2-/- cells (mouse (endogenous in tarbp2-/- tail embryonic fibroblasts)) (UniProt Q8R418); assay: co-IP; 1 mg extract of transfected tarbp2-/- cells; IP with monoclonal anti-Dicer 73 on protein G sepharose, overnight at 4°C; blot with anti-Myc (and anti-TRBP 672)

binding (Myc-TRBP2ΔC4 (human)): no binding | binding (Myc-TRBP2 (human)): binds | binding (Myc-TRBP1ΔC4 (human)): no binding | binding (Myc-TRBP1 (human)): binds
Molecule: endogenous Dicer of murine tarbp2-/- cells (from UniProt Q8R418 1-1916)

binding [1]: no binding
B1: Myc-TRBP2ΔC4 (domain or fragment, UniProt Q15633 1-297)
chain: T1 sequence

binding [1]: binds
B2: Myc-TRBP2 (protein, UniProt Q15633-1 1-366)
chain: T2 sequence

binding [1]: no binding
B3: Myc-TRBP1ΔC4 (domain or fragment, UniProt Q15633-2 1-276)
chain: T3 sequence

binding [1]: binds
B4: Myc-TRBP1 (protein, UniProt Q15633-2 1-345)
chain: T4 sequence
